Source: PubChem BioAssay (Tox21)
“And” between values parts separate entries of the source, which are not always exact repeats. Identical values can stand only once. The shares of active, inactive and inconclusive entries below differ from those in the screen. A potency beside an inconclusive call is a rough fit, not a confirmed value. A structure can be active in one record and inactive in another. The source made the active and inactive calls. Unless noted, the call rests on the fitted dose curve; in most records, active means well fitted cell-killing curve with a large enough effect in the repeat runs; inconclusive means weak or mixed curves, or effect the other way; inactive means flat fitted curve, though single readings scatter.

Target: Androgen receptor (Homo sapiens) (UniProt P10275)
UniProt P10275, sequence (P10275 whole entry, looked up): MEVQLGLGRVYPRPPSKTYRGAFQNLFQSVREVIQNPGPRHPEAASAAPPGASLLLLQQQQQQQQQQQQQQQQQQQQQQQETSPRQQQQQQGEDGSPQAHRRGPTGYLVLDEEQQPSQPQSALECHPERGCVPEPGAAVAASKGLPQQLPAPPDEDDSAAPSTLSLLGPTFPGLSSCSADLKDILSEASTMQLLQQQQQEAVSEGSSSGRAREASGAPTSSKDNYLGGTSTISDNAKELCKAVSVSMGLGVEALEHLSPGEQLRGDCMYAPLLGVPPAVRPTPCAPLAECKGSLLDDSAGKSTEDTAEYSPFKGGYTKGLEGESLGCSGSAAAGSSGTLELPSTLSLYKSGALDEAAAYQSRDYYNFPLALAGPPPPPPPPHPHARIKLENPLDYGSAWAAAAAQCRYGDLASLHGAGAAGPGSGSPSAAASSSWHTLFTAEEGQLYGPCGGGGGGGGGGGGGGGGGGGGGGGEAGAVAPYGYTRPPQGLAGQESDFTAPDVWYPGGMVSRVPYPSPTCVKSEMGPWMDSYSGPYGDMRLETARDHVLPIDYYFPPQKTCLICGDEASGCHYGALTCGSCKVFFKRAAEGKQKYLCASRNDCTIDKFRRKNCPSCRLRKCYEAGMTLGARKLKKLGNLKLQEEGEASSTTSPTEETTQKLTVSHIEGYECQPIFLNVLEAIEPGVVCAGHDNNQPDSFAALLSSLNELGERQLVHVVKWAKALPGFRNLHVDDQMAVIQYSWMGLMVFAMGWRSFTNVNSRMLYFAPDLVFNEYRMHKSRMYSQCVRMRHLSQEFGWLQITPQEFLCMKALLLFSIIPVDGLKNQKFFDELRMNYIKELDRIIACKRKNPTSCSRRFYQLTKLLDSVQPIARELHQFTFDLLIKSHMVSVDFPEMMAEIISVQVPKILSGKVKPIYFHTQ
Experiment: qHTS assay to identify small molecule agonists of the androgen receptor (AR) signaling pathway (AID 743036; active means well fitted activation curve with a large enough effect in the signal ratio in the repeat runs, with a control signal flat, not every such curve was filed as active; inconclusive means weak or mixed curves, or effect the other way; inactive means no such curve, though single readings can be large or run the other way; the % refers to the signal ratio)
Conditions: HEK293 AR-UAS-bla GripTite, beta-lactamase FRET ratio, 16 h; activation: at 62.4 µM (top of the series) unless noted
Outline: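 Reporter line: GeneBLAzer AR-UAS-bla-GripTite (HEK293). Steps: plate cells, 4 h rest, add compounds, 16 h at 37C, add LiveBLAzer B/G substrate, 2 h at RT, read fluorescence.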
On the % scale 0 is the no-effect control and ±100 the full control effect; potency means the concentration at half of the fitted maximal effect; tags describe the fitted curve by direction and shape or compound fluorescence and quenching.

Structure (SMILES)	activation	Potency
CC(=O)/C=C/c1ccc2c(c1)OCO2	inconclusive: 41.1% [at 79.1 µM]	–
CCC1(CCC(C)C)C(=O)NC(=O)NC1=O	–	inconclusive: 48.1 µM [rising, partial curve, poor fit]
Cc1ccccc1C(=O)Nc1cccc(OC(C)C)c1	–	inconclusive: 24.5 µM [fluorescent, partial curve, poor fit]
COC(=O)Nc1nc2ccccc2[nH]1	inconclusive: 9.13% and inconclusive: 30%	–
CC1=C(C(=O)Nc2ccccc2)SCCO1	inconclusive: -22.5%	–
O=C(C(Cl)(Cl)Cl)C(Cl)(Cl)Cl	inactive: 4.29% [at 79.1 µM]	–
C#C[C@]1(O)C=C[C@H]2[C@@H]3CCC4=CC(=O)CC[C@@H]4[C@H]3CC[C@@]21CC	–	inconclusive: 0.0005 µM [activator]
CCCCC(CC)COP(=O)(Oc1ccccc1)Oc1ccccc1 (stereo unspecified)	inactive: -6.87%	–
Cc1ccccc1OP(=O)(Oc1ccccc1C)Oc1ccccc1C	inconclusive: -24.2% [at 79.1 µM]	–
CNC(=O)Oc1cccc2c1OC(C)(C)C2	–	inactive
BrCC(Br)C1CCC(Br)C(Br)C1 (stereo unspecified)	inactive: -4.33%	–
O=[N+]([O-])/N=C1\NCCN1Cc1ccc(Cl)nc1	–	inconclusive: 1.95 µM [activator, single point]
CCC1(c2ccc(N)cc2)CCC(=O)NC1=O (stereo unspecified)	–	inactive
NP(N)(=O)NC(=O)c1ccc(F)cc1	inactive: 12.3%	–
Cc1cc(Cl)ccc1OCC(=O)O	–	inconclusive: 48.7 µM [rising, partial curve, poor fit] and inconclusive: 38.9 µM [rising, partial curve, poor fit]
C[N+](C)(C)CCCl	–	inconclusive: 5.64 µM [activator, single point]
O=c1oc2ccccc2c(O)c1Cc1c(O)c2ccccc2oc1=O	inactive: -1.93% [at 29.2 µM]	–

Tested on: not listed separately
Experiment: qHTS assay to identify small molecule antagonists of the androgen receptor (AR) signaling pathway using the MDA cell line - cell viability counter screen (AID 743041; further: nearly all actives have a fitted effect of over 45% in size)
Conditions: MDA-kb2 viability, CellTiter-Fluor, 16 h, cells co-treated with R1881 androgen agonist; viability change, negative = cytotoxic: at 70.3 µM (top of the series) unless noted
Outline: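 Viability counter screen run alongside the AR antagonist reporter: cells seeded 5 h before compound, R1881 added, 16 h incubation at 37C without CO2, fluorescent CellTiter-Fluor signal quantified.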

Structure (SMILES)	viability change, negative = cytotoxic	Potency
O=S(=O)(O)O	inconclusive: 6.66%	–
OC(O)C(Cl)(Cl)Cl	–	inconclusive: 0.278 µM [rising, single point]
CCCCCCn1cc[n+](C)c1	–	inconclusive: 68.9 µM [cytotoxic, single point]
Nc1ccc(N)cc1	–	inconclusive: 61.4 µM [cytotoxic, single point] and inconclusive: 48.6 µM [cytotoxic, partial curve]
O=[Se]=O	–	active: 19.2 µM
C[C@@H]1CC[C@H]2[C@@H](C)C(=O)O[C@@H]3O[C@@]4(C)CC[C@@H]1[C@]32OO4	–	inconclusive: 2.98 µM [cytotoxic, full curve]
NCC(CC(=O)O)c1ccc(Cl)cc1 (stereo unspecified)	inactive: 0.512%	–
C=CCOC(Cn1ccnc1)c1ccc(Cl)cc1Cl (stereo unspecified)	–	inconclusive: 77.2 µM [cytotoxic] and inconclusive: 68.6 µM [cytotoxic, single point]
CCC(=O)C(CC(C)N(C)C)(c1ccccc1)c1ccccc1 (stereo unspecified)	–	inconclusive: 61.4 µM [cytotoxic]
COC(=O)Nc1cccc(OC(=O)Nc2cccc(C)c2)c1	–	inactive
Cc1ccc2c(c1)C1CN(C)CCC1N2 (stereo unspecified)	inconclusive: 30.7%	–
CCN(CC)C(=S)[S-].CCN(CC)C(=S)[S-].[Zn+2]	–	active: 0.96 µM
c1ccc(N=NNc2ccccc2)cc1	–	inconclusive: 35.6 µM [cytotoxic, partial curve] and inconclusive: 68.6 µM [cytotoxic, single point]
Cl/C=C/CCl	inactive: -4.54% [at 95 µM]	–
CC(=O)[O-].CC(=O)[O-].O.O.O.[Pb+2]	–	inconclusive: 0.0017 µM [rising, full curve, poor fit]
CC(=O)[O-].CC(=O)[O-].[Hg+2]	–	active: 27.3 µM
CC(C)(C)C(O)C(Oc1ccc(Cl)cc1)n1cncn1 (stereo unspecified)	–	inconclusive: 61.1 µM [rising, partial curve, poor fit]
COC(C)(C)C	inactive: 3.69%	–
Fc1ccc(Oc2ccnc3cc(Cl)cc(Cl)c23)cc1	–	inconclusive: 13.7 µM [rising, partial curve, poor fit]
